Reference: publication PMC3723532
Results are given in words; binding and its absence hold for the method and conditions named. For part of these data: Binding seen in cells or lysates may run through a third protein. Some entries that bind do so weakly or less than the wild type. For part of these data: Sequences can lack the tags named with a protein. Blank lines part the entries; values can stand above or below the binder they belong to.

Protein sequences, listed by entry. Tags and fused reporters are not part of them.
UniProt Q8LBM2: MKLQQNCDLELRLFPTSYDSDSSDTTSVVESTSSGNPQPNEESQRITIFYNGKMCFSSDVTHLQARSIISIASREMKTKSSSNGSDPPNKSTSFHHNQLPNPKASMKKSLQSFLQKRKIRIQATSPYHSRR
UniProt Q93ZM9: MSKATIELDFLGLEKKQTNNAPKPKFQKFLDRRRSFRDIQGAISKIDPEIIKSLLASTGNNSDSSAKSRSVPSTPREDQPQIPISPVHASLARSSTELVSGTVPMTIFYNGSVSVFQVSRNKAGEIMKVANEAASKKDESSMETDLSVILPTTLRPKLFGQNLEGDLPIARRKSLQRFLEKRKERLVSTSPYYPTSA
UniProt Q39204: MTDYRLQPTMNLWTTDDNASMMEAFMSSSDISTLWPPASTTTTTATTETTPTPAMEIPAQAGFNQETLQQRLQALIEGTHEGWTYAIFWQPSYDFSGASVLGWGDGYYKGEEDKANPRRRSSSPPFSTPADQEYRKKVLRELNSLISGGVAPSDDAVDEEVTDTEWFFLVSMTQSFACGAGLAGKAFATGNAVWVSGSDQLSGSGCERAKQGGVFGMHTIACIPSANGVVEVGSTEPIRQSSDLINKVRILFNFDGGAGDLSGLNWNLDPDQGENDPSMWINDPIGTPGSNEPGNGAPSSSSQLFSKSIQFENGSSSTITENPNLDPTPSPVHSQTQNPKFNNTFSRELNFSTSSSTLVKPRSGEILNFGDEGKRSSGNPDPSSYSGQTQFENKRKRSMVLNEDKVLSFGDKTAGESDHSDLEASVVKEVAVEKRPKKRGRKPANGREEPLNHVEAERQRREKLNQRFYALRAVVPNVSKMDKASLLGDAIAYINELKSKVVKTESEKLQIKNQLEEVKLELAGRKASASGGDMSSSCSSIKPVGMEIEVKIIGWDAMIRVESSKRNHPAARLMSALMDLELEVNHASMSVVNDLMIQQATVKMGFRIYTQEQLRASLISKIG
UniProt Q9FIP9: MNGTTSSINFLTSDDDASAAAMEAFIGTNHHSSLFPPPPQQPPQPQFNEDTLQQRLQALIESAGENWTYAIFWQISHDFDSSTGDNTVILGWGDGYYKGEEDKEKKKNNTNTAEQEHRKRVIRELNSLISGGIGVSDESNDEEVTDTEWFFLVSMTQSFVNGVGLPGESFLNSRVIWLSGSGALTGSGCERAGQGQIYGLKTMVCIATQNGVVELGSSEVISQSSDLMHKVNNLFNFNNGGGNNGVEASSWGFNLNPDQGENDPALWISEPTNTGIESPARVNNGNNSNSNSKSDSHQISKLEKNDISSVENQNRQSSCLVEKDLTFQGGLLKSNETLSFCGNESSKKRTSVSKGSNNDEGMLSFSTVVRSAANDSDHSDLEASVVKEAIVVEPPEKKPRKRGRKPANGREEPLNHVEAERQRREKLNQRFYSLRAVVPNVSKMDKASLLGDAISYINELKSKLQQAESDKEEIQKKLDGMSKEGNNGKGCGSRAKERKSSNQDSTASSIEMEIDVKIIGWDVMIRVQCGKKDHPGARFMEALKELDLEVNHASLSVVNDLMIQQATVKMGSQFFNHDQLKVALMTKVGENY
UniProt O49687: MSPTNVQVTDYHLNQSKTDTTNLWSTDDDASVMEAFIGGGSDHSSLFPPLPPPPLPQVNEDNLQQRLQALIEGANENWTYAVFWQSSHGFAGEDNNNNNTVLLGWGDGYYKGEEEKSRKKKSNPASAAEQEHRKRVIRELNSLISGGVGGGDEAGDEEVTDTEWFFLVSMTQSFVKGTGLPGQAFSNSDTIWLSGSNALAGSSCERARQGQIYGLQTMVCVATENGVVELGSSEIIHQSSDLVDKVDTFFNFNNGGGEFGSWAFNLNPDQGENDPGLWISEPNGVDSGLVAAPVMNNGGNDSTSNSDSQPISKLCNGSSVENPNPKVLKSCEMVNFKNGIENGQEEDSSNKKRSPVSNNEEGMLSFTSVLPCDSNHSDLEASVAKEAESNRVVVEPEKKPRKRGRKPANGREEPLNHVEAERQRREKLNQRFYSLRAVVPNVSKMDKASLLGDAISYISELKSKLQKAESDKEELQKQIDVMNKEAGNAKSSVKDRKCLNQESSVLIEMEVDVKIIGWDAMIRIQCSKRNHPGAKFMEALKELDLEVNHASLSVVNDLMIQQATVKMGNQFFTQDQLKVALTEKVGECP

How the values were obtained:
[1] = target: T1, JAZ11 (Arabidopsis thaliana) (UniProt Q9M246); assay: two-hybrid; LexA BD fusions (pLexA) and B42 AD fusions (pB42AD) in yeast EGY48; blue colour on 2% Gal/1% raffinose/SD/-Ura/-His/-Trp/-Leu/X-β-Gal medium; images after 3 days at 30°C
T1 sequence: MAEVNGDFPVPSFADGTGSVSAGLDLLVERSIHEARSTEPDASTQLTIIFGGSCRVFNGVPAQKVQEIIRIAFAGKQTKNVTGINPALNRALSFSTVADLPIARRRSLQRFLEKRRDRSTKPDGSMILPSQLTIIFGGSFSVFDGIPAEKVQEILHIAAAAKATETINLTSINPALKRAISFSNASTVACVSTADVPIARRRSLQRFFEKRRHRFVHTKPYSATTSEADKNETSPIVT

[2] = target: JAZ8 (Arabidopsis thaliana) (UniProt Q8LBM2); assay: as above
[3] = target: T2, EGL3 (BiFC fusion) (Arabidopsis thaliana) (UniProt Q9CAD0); assay: split reporter; BiFC: nYFP and cYFP fusions coexpressed in N. benthamiana leaves by Agrobacterium infiltration; YFP fluorescence 50 h after infiltration, plants at 24°C
T2 sequence: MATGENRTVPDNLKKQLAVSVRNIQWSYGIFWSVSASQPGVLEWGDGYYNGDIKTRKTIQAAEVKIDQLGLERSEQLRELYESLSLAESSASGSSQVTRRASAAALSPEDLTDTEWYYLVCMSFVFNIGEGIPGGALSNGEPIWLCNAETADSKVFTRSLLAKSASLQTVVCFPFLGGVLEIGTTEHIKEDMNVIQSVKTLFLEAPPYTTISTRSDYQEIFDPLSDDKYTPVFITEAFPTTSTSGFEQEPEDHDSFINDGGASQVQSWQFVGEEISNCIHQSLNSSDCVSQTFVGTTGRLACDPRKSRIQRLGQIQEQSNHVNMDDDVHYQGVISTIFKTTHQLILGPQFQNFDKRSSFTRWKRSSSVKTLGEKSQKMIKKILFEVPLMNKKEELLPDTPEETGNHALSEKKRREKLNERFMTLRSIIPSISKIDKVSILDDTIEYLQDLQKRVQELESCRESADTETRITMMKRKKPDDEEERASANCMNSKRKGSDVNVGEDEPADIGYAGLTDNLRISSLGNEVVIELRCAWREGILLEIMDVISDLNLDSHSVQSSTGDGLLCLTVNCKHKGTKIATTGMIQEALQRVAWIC

[4] = target: T3, GL1 (BiFC fusion) (Arabidopsis thaliana) (UniProt P27900); assay: as above
T3 sequence: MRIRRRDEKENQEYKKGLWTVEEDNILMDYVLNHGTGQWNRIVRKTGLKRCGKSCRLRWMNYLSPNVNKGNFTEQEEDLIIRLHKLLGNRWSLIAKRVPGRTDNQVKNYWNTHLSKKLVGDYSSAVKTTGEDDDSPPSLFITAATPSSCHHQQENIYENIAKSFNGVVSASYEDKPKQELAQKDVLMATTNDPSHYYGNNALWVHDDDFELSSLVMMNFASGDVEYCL

[5] = target: T4, GL3 (BiFC fusion) (Arabidopsis thaliana) (UniProt Q9FN69); assay: as above
T4 sequence: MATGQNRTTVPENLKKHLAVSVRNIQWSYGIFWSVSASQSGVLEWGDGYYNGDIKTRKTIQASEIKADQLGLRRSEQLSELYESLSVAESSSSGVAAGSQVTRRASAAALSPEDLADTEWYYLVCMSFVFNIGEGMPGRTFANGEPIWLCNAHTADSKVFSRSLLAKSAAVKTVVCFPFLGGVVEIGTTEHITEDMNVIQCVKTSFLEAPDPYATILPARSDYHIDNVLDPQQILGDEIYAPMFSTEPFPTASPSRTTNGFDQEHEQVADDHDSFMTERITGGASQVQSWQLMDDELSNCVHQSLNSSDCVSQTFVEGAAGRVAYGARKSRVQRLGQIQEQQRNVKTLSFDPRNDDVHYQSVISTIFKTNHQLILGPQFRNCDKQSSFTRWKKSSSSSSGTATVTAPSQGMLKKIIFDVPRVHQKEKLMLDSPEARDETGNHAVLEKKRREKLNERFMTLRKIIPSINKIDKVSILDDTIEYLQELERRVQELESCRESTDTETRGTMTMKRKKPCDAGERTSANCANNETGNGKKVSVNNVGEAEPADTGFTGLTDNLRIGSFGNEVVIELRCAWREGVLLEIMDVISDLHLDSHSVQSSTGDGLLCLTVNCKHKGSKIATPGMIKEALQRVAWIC

[6] = target: T5, JAZ1-nYFP (Arabidopsis thaliana) (UniProt Q9LMA8); assay: as above
T5 sequence: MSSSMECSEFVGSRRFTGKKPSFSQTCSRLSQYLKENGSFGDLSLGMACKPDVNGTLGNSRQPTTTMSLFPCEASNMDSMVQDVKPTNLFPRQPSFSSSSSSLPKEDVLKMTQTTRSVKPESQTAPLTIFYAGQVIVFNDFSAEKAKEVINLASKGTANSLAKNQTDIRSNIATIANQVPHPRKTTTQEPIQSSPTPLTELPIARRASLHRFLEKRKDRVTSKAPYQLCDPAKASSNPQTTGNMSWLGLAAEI

[7] = target: JAZ10 (fused with nYFP) (Arabidopsis thaliana) (UniProt Q93ZM9); assay: as above
[8] = target: T6, MYB75 (BiFC fusion) (Arabidopsis thaliana) (UniProt Q9FE25); assay: as above
T6 sequence: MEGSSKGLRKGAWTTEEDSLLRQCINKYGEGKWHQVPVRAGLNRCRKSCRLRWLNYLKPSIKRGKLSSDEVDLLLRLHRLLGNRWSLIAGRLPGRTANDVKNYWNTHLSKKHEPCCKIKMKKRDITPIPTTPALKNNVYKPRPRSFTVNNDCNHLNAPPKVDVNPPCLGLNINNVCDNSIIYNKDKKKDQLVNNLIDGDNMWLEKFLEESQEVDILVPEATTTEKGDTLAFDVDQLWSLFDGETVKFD

[9] = target: MYC2 (BiFC fusion) (Arabidopsis thaliana) (UniProt Q39204); assay: as above
[10] = target: MYC3 (BiFC fusion) (Arabidopsis thaliana) (UniProt Q9FIP9); assay: as above
[11] = target: MYC4 (BiFC fusion) (Arabidopsis thaliana) (UniProt O49687); assay: as above
[12] = target: T7, TT8 (BiFC fusion) (Arabidopsis thaliana) (UniProt Q9FT81); assay: as above
T7 sequence: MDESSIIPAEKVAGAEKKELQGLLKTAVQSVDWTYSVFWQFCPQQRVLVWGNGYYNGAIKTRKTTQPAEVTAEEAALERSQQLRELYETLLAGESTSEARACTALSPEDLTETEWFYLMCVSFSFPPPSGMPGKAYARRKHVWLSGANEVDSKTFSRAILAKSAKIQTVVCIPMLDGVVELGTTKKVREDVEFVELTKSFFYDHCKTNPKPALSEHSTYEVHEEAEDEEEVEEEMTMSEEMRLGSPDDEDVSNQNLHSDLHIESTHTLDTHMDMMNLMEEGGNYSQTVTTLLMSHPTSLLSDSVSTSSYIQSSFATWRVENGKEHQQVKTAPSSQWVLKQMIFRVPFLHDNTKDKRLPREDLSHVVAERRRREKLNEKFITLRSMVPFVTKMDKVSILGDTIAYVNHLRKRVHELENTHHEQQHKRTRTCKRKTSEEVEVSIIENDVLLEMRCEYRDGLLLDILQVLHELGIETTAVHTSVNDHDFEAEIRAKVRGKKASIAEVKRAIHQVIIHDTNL

binding [1]: binds
binding [2]: binds
B1: bHLH14 (protein, UniProt O23090 1-423)
chain: MYNLTFSPSLSSSLLSFTQQTPAAIVSSSPPDLVLQQKLRFVVETSPDRWAYVIFWQKMFDDQSDRSYLVWVDGHFCGNKNNNSQENYTTNSIECELMMDGGDDLELFYAASFYGEDRSPRKEVSDESLVWLTGPDELRFSNYERAKEAGFHGVHTLVSIPINNGIIELGSSESIIQNRNFINRVKSIFGSGKTTKHTNQTGSYPKPAVSDHSKSGNQQFGSERKRRRKLETTRVAAATKEKHHPAVLSHVEAEKQRREKLNHRFYALRAIVPKVSRMDKASLLSDAVSYIESLKSKIDDLETEIKKMKMTETDKLDNSSSNTSPSSVEYQVNQKPSKSNRGSDLEVQVKIVGEEAIIRVQTENVNHPTSALMSALMEMDCRVQHANASRLSQVMVQDVVVLVPEGLRSEDRLRTTLVRTLSL

binding [3]: no binding
binding [4]: no binding
binding [5]: no binding
binding [6]: binds
binding [7]: binds
binding [8]: no binding
binding [9]: no binding
binding [10]: no binding
binding [11]: no binding
binding [12]: no binding
B2: cYFP-bHLH14 (protein, UniProt O23090 1-423)
chain: B1 chain
